This note sets out measurements from the supplement of paper PMC4967469.

A lower IC50 marks a more sensitive line; a limit (>, <) means that the fit lies beyond the doses tested. AUC, from the same fit, is the share of area under the viability curve across the 256-fold dose range; values near 1 show little effect. For some assays here: The top dose, if marked as inferred, comes from the curve model; the source does not state it. For some assays here: An entry number marks a drug with two screens in the source, which often give different values.

The IC50 is the midpoint of a concentration-inhibition curve.

Test in all cases: Viability of human cancer cell lines after 72 h of drug (GDSC screen)
Compound in experiment [1]: NC(=O)Nc1sc(-c2ccc(F)cc2)cc1C(N)=O [TPCA-1]
The conditions noted are these: top dose 20 µM. Here is the method:
(§1)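 Human cancer cell lines in 384-well plates, medium with 10% serum, drug for 72 h over a 256-fold dose range (nine 2-fold or five 4-fold steps up to the top dose). Adherent lines were fixed and stained with the nucleic acid dye Syto60, suspension lines read with resazurin; signal relative to control wells, capped at 0 and 100%. One two-parameter sigmoid per drug and line, fitted in a mixed model over all curves with the slope shared within a line.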

Compound in experiment [2]: CCCS(=O)(=O)Nc1ccc(F)c(C(=O)c2c[nH]c3ncc(Cl)cc23)c1F [PLX4720]
The conditions noted are these: top dose 10 µM. Here is the method:
as §1

Compound in experiment [3]: CC(C)CC(=O)Nc1n[nH]c2c1CN(C(=O)C1CCN(C)CC1)C2(C)C [PHA-793887]
The note with it: top dose 10.24 µM. The method, then: as §1

Compound in experiment [4]: C[C@@H](N)c1ccc(C(=O)Nc2ccnc3[nH]ccc23)cc1 [Y-39983]
The note with it: top dose 20 µM; top dose inferred. Here is the method:
as §1

Compound in experiment [5]: C/C(=C\c1csc(C)n1)[C@@H]1C[C@@H]2O[C@]2(C)CCC[C@H](C)[C@H](O)[C@@H](C)C(=O)C(C)(C)[C@@H](O)CC(=O)O1 [Epothilone B]
The note with it: top dose 0.032 µM; top dose inferred. Here is the method:
as §1

Compound in experiment [6]: CCc1nc(N)nc(N)c1-c1ccc(Cl)cc1 [Pyrimethamine]
The conditions noted are these: top dose 20 µM; top dose inferred. Here is the method:
as §1

Compound in experiment [7]: CN1CCN(CCOc2cc(OC3CCOCC3)c3c(Nc4c(Cl)ccc5c4OCO5)ncnc3c2)CC1 [AZD-0530]
The note with it: top dose 2 µM. The method, then: as §1

Setting [8] is: screen: GDSC drug entry 1371, top dose inferred.

ARH-77 (myeloma, suspension): the AUC in experiment [1] was found to be 0.579; in experiment [2] (screen: GDSC drug entry 1036), 0.97; in experiment [2] (setting [8]), 0.957; in experiment [3], 0.532; in experiment [4], 0.919; in experiment [5] it was 0.679. The AUC worked out at 0.871 in experiment [6] and 0.937 in experiment [7]. The IC50 in experiment [1] is 2.04 µM; in experiment [2] (screen: GDSC drug entry 1036) it was greater than 10 µM; in experiment [2] (setting [8]) it was greater than 10 µM; in experiment [3], 0.781 µM; in experiment [4], greater than 20 µM; in experiment [5] it was 0.00618 µM. Moreover, the IC50 in experiment [6] was 17.6 µM; in experiment [7] it was greater than 2 µM.
On to BB30-HNC (head and neck, adherent), for which the AUC in experiment [1] was 0.814; in experiment [2] (screen: GDSC drug entry 1036), 0.939; in experiment [2] (setting [8]), 0.969; in experiment [3], 0.866; in experiment [4], 0.975; in experiment [5], 0.304. For the same cell line, the AUC in experiment [6] stood at 0.895; in experiment [7], 0.808. Besides, the IC50 in experiment [1] is 10.6 µM; in experiment [2] (screen: GDSC drug entry 1036), greater than 10 µM; in experiment [2] (setting [8]), greater than 10 µM; in experiment [3], 8.83 µM; in experiment [4], greater than 20 µM; in experiment [5], 0.000571 µM. For the same cell line, the figures for the IC50 in experiment [6] and in experiment [7] were greater than 20 µM and 1.01 µM, respectively.
Take BB49-HNC (head and neck, adherent): the AUC in experiment [1] stood at 0.899; in experiment [2] (screen: GDSC drug entry 1036), 0.952; in experiment [2] (setting [8]), 0.919; in experiment [3] it was 0.976; in experiment [4] it was 0.81; in experiment [5], 0.876. The values for the AUC in experiment [6] and in experiment [7] were 0.94 and 0.881, respectively. Further, the IC50 was greater than 20 µM in experiment [1]; greater than 10 µM in experiment [2] (screen: GDSC drug entry 1036); greater than 10 µM in experiment [2] (setting [8]); greater than 10.2 µM in experiment [3]; 16.3 µM in experiment [4]; greater than 0.032 µM in experiment [5]. The IC50 in experiment [6] is greater than 20 µM; in experiment [7], greater than 2 µM.
For the cell line BC-1 (B-cell lymphoma, suspension), the AUC in experiment [1] is 0.624; in experiment [2] (screen: GDSC drug entry 1036), 0.979; in experiment [2] (setting [8]), 0.801; in experiment [3], 0.343; in experiment [4] it was 0.867; in experiment [5], 0.509. Also, the AUC came to 0.751 in experiment [6] and 0.987 in experiment [7]. In addition, the IC50 in experiment [1] was 2.59 µM; in experiment [2] (screen: GDSC drug entry 1036) it was greater than 10 µM; in experiment [2] (setting [8]), 4.04 µM; in experiment [3], 0.252 µM; in experiment [4] it was 13.7 µM; in experiment [5], 0.0021 µM. Further, the IC50 in experiment [6] was 5.74 µM; in experiment [7], greater than 2 µM.
For BE2-M17 (neuroblastoma, adherent), the AUC in experiment [1] amounted to 0.937; in experiment [2] (screen: GDSC drug entry 1036) it was 0.984; in experiment [2] (setting [8]) it was 0.976; in experiment [3], 0.93; in experiment [4], 0.982; in experiment [5], 0.903. Also, the AUC in experiment [6] turned out to be 0.987; in experiment [7], 0.941. For the same cell line, the IC50 in experiment [1] is greater than 20 µM; in experiment [2] (screen: GDSC drug entry 1036), greater than 10 µM; in experiment [2] (setting [8]), greater than 10 µM; in experiment [3] it was greater than 10.2 µM; in experiment [4] it was greater than 20 µM; in experiment [5], greater than 0.032 µM. Further, the IC50 is greater than 20 µM in experiment [6] and greater than 2 µM in experiment [7].
Regarding “BE-13 (lymphoblastic leukaemia, suspension)”, the AUC turned out to be 0.453 in experiment [1]; 0.822 in experiment [2] (screen: GDSC drug entry 1036); 0.946 in experiment [2] (setting [8]); 0.666 in experiment [3]; 0.428 in experiment [4]; 0.684 in experiment [5]. For the same cell line, the AUC in experiment [6] was 0.751; in experiment [7], 0.87. The IC50 in experiment [1] was 0.939 µM; in experiment [2] (screen: GDSC drug entry 1036), 5.36 µM; in experiment [2] (setting [8]), greater than 10 µM; in experiment [3] it was 1.79 µM; in experiment [4], 0.805 µM; in experiment [5], 0.00628 µM. For the same cell line, the IC50 in experiment [6] is 6.22 µM; in experiment [7] it was 1.66 µM.
In the case of BL-41 (Burkitt lymphoma, suspension), the AUC in experiment [1] worked out at 0.53; in experiment [2] (screen: GDSC drug entry 1036), 0.99; in experiment [2] (setting [8]), 0.991; in experiment [3], 0.051; in experiment [4] it was 0.625; in experiment [5], 0.435. The results for the AUC in experiment [6] and in experiment [7] were 0.918 and 0.988, respectively. For the same cell line, the IC50 in experiment [1] was 1.48 µM; in experiment [2] (screen: GDSC drug entry 1036) it was greater than 10 µM; in experiment [2] (setting [8]), greater than 10 µM; in experiment [3], less than 0.04 µM; in experiment [4], 2.52 µM; in experiment [5] it was 0.00139 µM. Besides, the IC50 was 17.5 µM in experiment [6] and greater than 2 µM in experiment [7].
With “BV-173 (chronic myeloid leukaemia, suspension)”, the AUC in experiment [1] turned out to be 0.741; in experiment [2] (screen: GDSC drug entry 1036), 0.793; in experiment [2] (setting [8]), 0.944; in experiment [3] it was 0.522; in experiment [4], 0.87; in experiment [5], 0.79. Moreover, the AUC is 0.821 in experiment [6] and 0.746 in experiment [7]. Moreover, the IC50 is 5.5 µM in experiment [1]; 3.98 µM in experiment [2] (screen: GDSC drug entry 1036); greater than 10 µM in experiment [2] (setting [8]); 0.727 µM in experiment [3]; 14.9 µM in experiment [4]; 0.0124 µM in experiment [5]. The figures for the IC50 in experiment [6] and in experiment [7] were 9.81 µM and 0.571 µM, respectively.
